{"source": "paper PMC12235650", "about": "“Macrocyclization of backbone N-methylated peptides by a prolyl oligopeptidase with a distinctive substrate recognition mechanism” (Chemical Science, 2025)", "key": {"[1]": {"target": "T1, OphP (Omphalotus olearius, UniProt P9WEN5)", "T1 construct": "N-terminal His8SUMO* fusion made in Pichia pastoris; residues 1-738 described in the structure; monomer", "experiment": "chromogenic peptidase assay (4-nitroaniline release)", "assay_type": "biochemical", "conditions": "activity optimum 30 C, pH 6.0"}, "[2]": {"target": "T1, OphP", "experiment": "peptidase activity inhibition assay", "assay_type": "biochemical", "conditions": "covalent; active-site inhibitor"}, "[3]": {"target": "T1, OphP", "experiment": "X-ray crystallography, crystal soaking, […] A", "assay_type": "binding", "conditions": "covalent; bound to active site Ser580"}}, "note": "Residues, ends and D or L forms follow the SMILES beside them. *: point of attachment. pNA = O=[N+]([O-])c1ccc(N*)cc1; Cbz = O=C(OCc1ccccc1)*"}
{"smiles": "O=C(NCC(=O)N1CCC[C@H]1C(=O)Nc1ccc([N+](=O)[O-])cc1)OCc1ccccc1", "note": "[Z-Gly-Pro-4-pNA, benzyloxycarbonyl-Gly-Pro-p-nitroanilide] (Cbz-Gly-Pro-pNA)", "values": [{"measurement": "chromogenic peptidase assay (4-nitroaniline release)", "setting": "[1]", "value": "confirmed as catalytically active using a standard chromogenic substrate for POPs"}]}
{"smiles": "O=C[C@@H]1CCCN1C(=O)[C@@H]1CCCN1C(=O)OCc1ccccc1", "note": "[ZPP, Z-Pro-prolinal] (Cbz-Pro-Pro-aldehyde)", "values": [{"measurement": "peptidase activity inhibition assay", "setting": "[2]", "value": "reduced by Z-Pro-prolinal (ZPP), a common covalent inhibitor for POPs"}, {"measurement": "X-ray crystallography, crystal soaking, 2.0 A", "setting": "[3]", "value": "OphP crystals soaked with covalent inhibitor ZPP overnight showed density at the active site"}]}
